Out of some 340,000 compounds screened, about 530 (0.16%) were called active. This list was built around the results that the source calls inconclusive (neither active nor inactive); the mix of calls is not that of the screen. Cut-off read from the data, not from the text of the source: active = activity change below about -80%; inconclusive = between about -30% and that limit; inactive = weaker than that.
experiment: Small Molecules that selectively kill Giardia lamblia: qHTS; conditions: Giardia lamblia trophozoite viability; at 7.66 µM; hits give low values;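 note: parasites exposed to compound for two days anaerobically before the ATP read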
How it was run: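 Trophozoite viability was measured as ATP-dependent luminescence, read 15-30 min after reagent addition. Before that, parasites at 100 cells/well were exposed to compounds for 48 h, anaerobically, at 37 deg C.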
% is set by controls: 0 for no effect and ±100 for the full control effect.

Row | Structure (SMILES) | activity change
1 | COc1cccc(/C=C2\CCc3ccccc3C2=O)c1 | inconclusive: -32.1% [inhibitor]
2 | COc1ccc(Cn2ccnc2SCC(=O)NC2CCCC2)cc1 | inconclusive: -46% [inhibitor]
3 | COc1ccccc1NS(=O)(=O)c1ccc2nc(CCl)[nH]c2c1 | inactive: 18.4%
4 | COc1cccc(CNC(=O)Cc2ccc(NC(=O)C3=C(C)OCCS3)cc2)c1 | inconclusive: -43.2% [inhibitor]
5 | C/C(=N\NC(=O)c1cc(O)ccc1O)c1cccc(NC(=O)c2ccc(Cl)cc2)c1 | inconclusive: -32.5% [inhibitor]
6 | CCc1cccc(NC(=O)Cn2cc(C=O)c3ccccc32)c1 | inconclusive: -30.4% [inhibitor]
7 | CCOc1cc(N2CCOCC2)c(OCC)cc1NC1=NCCCCC1 | inactive: -4.88%
8 | Cc1cccn2c(=O)nc(SCC(=O)NC3CCCC3)nc12 | inactive: 1.56%
9 | Cc1oc2c(c1C(=O)N1CCC(C)CC1)C(=O)c1ccccc1C2=O | inconclusive: -49.3% [inhibitor]
10 | CN(C)CCCN(C(=O)c1ccc(S(=O)(=O)N2CCCC2)cc1)c1nc2c(F)cc(F)cc2s1 | inactive: 19.5%
11 | C=CCNC(=O)/C(=C\c1ccc(OC)cc1)NC(=O)c1ccc([N+](=O)[O-])cc1 | inactive: 8.83%
12 | CCOc1ccc(NC(=O)CN2CCN(CC(=O)Nc3ccc(F)c(F)c3)CC2)cc1 | inactive: 6.75%
13 | CCn1c(SCC(=O)NC2CCCCC2)nc2ccccc2c1=O | inactive: -2.25%
14 | Cc1cc(C)n(CC(O)CN(c2cccc([N+](=O)[O-])c2)S(=O)(=O)c2ccccc2)n1 (configuration not stated) | inconclusive: -31.6% [inhibitor]
15 | O=C(N/N=C/c1ccc([N+](=O)[O-])o1)c1cn(-c2ccccc2)nc1-c1ccc(Cl)cc1 | active: -89.8%
16 | Cc1ccc2nc(-c3cc(N)cc(N)c3)oc2c1 | inconclusive: -53.1% [inhibitor]
17 | CC1CC=C2C(C#N)=C(N)C(C#N)(C#N)C(c3cccs3)C2C1 (configuration not stated) | inactive: 1.97%
18 | C=CCN(C(=O)CCC(=O)Nc1cc(C)on1)C(C(=O)NC1CCCC1)c1ccc(C)cc1 (configuration not stated) | inconclusive: -31% [inhibitor]
19 | COc1ccc(C(=O)Cc2nnc(C)s2)cc1 | inactive: 4.54%
20 | CC(C)(C)C(=O)Nc1cc2c3c(c1)CC(=O)N3CCC2 | inconclusive: -39.8% [inhibitor]
21 | NC(=O)Cc1ccc(C(=O)c2ccc(F)cc2)s1 | inconclusive: -31% [inhibitor]
22 | Cc1cc(=O)oc2cc(O)c(N=Nc3ccccc3)cc12 | inconclusive: -72.2% [inhibitor]
23 | Cc1ccc(CN=c2c([N+](=O)[O-])nn(-c3ccc4c(c3)OCCO4)n2O)cc1 | active: -86.9%
24 | O=c1ccc2cc([N+](=O)[O-])c(CCO)cc2o1 | inconclusive: -38.5% [inhibitor]
25 | CCOC(=O)C1=C(COC(=O)C2CC(=O)N(c3ccc(CC)cc3)C2)NC(=O)NC1C (configuration not stated) | inconclusive: -41.4% [inhibitor]
26 | Cc1ccc(/C=C2\Oc3c(ccc(O)c3CN3CCN(C)CC3)C2=O)cc1 | inactive: 7.58%

Row | Structure (SMILES) | activity change
27 | c1ccc(-c2cn3c(n2)-c2ccccc2C3)cc1 | inconclusive: -36.5% [inhibitor]
28 | CN(C)S(=O)(=O)N1CCC(Oc2ccc(C(=O)N3C[C@H]4CC[C@H]3C4)cc2)CC1 | inactive: 6.97%
29 | CC(=O)c1ccc(N2CCN(C(=O)C3CCCN(c4ncnc5c4nc4n5CCCCC4)C3)CC2)cc1 (configuration not stated) | inactive: 1.18%
30 | Cc1c(C)n(Cc2ccccc2)c2ncnc(NCCN(C)C)c12 | inactive: -19.1%
31 | CN(C)c1ccc(/C=C/c2nc3ccccc3s2)cc1 | inconclusive: -77.8% [inhibitor]
32 | CN(Cc1ccccc1)S(=O)(=O)c1ccc(Cl)c(C(=O)NCCc2ccccn2)c1 | inactive: 7.61%
33 | Cc1cc2[nH]c(=O)c(=O)[nH]c2cc1S(=O)(=O)N1CCN(c2cccc(C(F)(F)F)c2)CC1 | inconclusive: -52.2% [inhibitor]
34 | CC1(C)C=Cc2c(c3c(c4c(=O)c(-c5ccc(O)cc5)coc24)OC(C)(C)CC3)O1 | inactive: 4.48%
35 | O=C(c1ccccc1)C(CCc1ccccn1)CCc1ccccn1 | inactive: 2.83%
36 | O=C(Nc1ccc(Br)cc1)C1CCN(C(=O)c2ccco2)CC1 | inactive: 3.6%
37 | NC(=O)c1ccc(SCC(=O)OCC(=O)NCC2CCCCC2)c([N+](=O)[O-])c1 | inconclusive: -41.8% [inhibitor]
38 | COc1cc(/C=C2\SC(c3ccccc3)=NC2=O)cc(Cl)c1O | inconclusive: -30.7% [inhibitor]
39 | O=c1c2ccccc2cnn1-c1ccc(Br)cc1 | inconclusive: -30.5% [inhibitor]
40 | CC(=O)c1ccc(N(C(=O)c2csnn2)C(C(=O)NC(C)(C)C)c2cccs2)cc1 (configuration not stated) | inconclusive: -30.2% [inhibitor]
41 | O=c1cc(C(F)(F)F)[nH]c2ccc(C(F)(F)F)cc12 | inconclusive: -34.1% [inhibitor]
42 | Cc1cccc(C)c1NC(=O)CNC(=O)c1ccc2nc[nH]c2c1 | inconclusive: -35.6% [inhibitor]
43 | O=C(Cn1ccnc1[N+](=O)[O-])NCc1ccccc1 | active: -83.3%
44 | COc1ccc(/C(O)=C2/C(=O)C(=O)N(CCCN3CCOCC3)C2c2ccc(N(C)C)cc2)cc1 (configuration not stated) | inconclusive: -48.4% [inhibitor]
45 | Cc1cccc(NS(=O)(=O)c2cc3c(cc2C)n(C)c(=O)c(=O)n3C)c1 | inconclusive: -31.4% [inhibitor]
46 | CCN1CCN(c2nnc(-c3ccc(C)cc3)c3ccccc23)CC1 | inconclusive: -31.3% [inhibitor]
47 | COc1ccc(F)c(CN(C)CC2CCCN(CCc3ccc(F)cc3)C2)c1 (configuration not stated) | inconclusive: -31.1% [inhibitor]
48 | CCCn1nc([N+](=O)[O-])c(C(C#N)c2nc3ccccc3s2)c(Cl)c1=O (configuration not stated) | inconclusive: -31.2% [inhibitor]
49 | CCN1C(=O)CC(C(=O)Nc2ccc(F)cc2)SC1=Nc1cccc(OC)c1 (configuration not stated) | inactive: 0.457%
50 | CN(C)c1cccc(C(=O)Nc2nc3ccccc3[nH]2)c1 | inconclusive: -75.8% [inhibitor]
51 | CCN(CCNC(=O)c1ccc(CSc2nc3ccncc3[nH]2)cc1)c1ccccc1 | inactive: -1.28%
52 | CC(C)=CCc1cc([C@@H]2COc3c(ccc4c3C=CC(C)(C)O4)C2)c(O)cc1O | inactive: -8.53%

Row | Structure (SMILES) | activity change
53 | CCN(c1ccccc1)S(=O)(=O)c1cccc(C(=O)OCc2nc3sc(C)c(C)c3c(=O)[nH]2)c1 | inconclusive: -47.1% [inhibitor]
54 | CN1CCN(CCC(=O)N/N=C/c2cc([N+](=O)[O-])ccc2OC(F)F)CC1 | inconclusive: -36.5% [inhibitor]
55 | COc1ccc(-c2coc3cc(O)ccc3c2=O)cc1 | inconclusive: -51.9% [inhibitor]
56 | CC(C)(C)OC(=O)N1CCC(c2c(C(=O)N3CCN(C4CCCCC4)CC3)cnn2-c2ccc(F)cc2)CC1 | inconclusive: -35.5% [inhibitor]
57 | CC(C)N(C(=O)[C@H]1C[C@H](CC(=O)NCCC2=CCCCC2)C(=O)N2CCc3c([nH]c4ccc(Cl)cc34)[C@]12C)C(C)C | inconclusive: -30.8% [inhibitor]
58 | CC(O)Cc1cn([C@@H](CCCCNC(=O)OC(C)(C)C)C(=O)N2CCN(C(=O)OC(C)(C)C)CC2)nn1 (some centres not stated) | inconclusive: -31.7% [inhibitor]
59 | Cc1cccc(C)c1OCc1nnc(SCC(=O)Nc2ccccc2F)o1 | inconclusive: -33.1% [inhibitor]
60 | COc1ccccc1NC(=O)Nc1ccc(C(=O)N2CCCCC2)cc1 | inconclusive: -32% [inhibitor]
61 | COc1ccc(Cl)cc1C(=O)NCCS(=O)(=O)N1CCN(c2ccccc2F)CC1 | inconclusive: -35% [inhibitor]
62 | CC(=O)Nc1ccc2c(c1)-c1ccc(F)cc1C2 | inactive: 3.27%
63 | COc1ccc(OC)c(-c2c[n+](=O)c3c(n2[O-])CCCC3)c1 | inconclusive: -35.7% [inhibitor]
64 | Cc1ccc(-n2cnc3ncnc(-c4ccccc4)c32)cc1 | inconclusive: -40.6% [inhibitor]
65 | COc1ccccc1CNCC(=O)Nc1ccccc1-n1cccc1 | inconclusive: -30.4% [inhibitor]
66 | CCOC(=O)C1(CCOc2ccccc2)CCN(Cc2ccc(OCC)c(CO)c2)CC1 | inconclusive: -36.8% [inhibitor]
67 | NC(=O)c1c(NC(=O)c2cccs2)sc2c1CCCCCC2 | inactive: -4.89%
68 | CNC(=O)c1ccc(Nc2nnc(-c3ccc(C(N)=O)cc3)c3ccccc23)cc1 | inactive: 28.4%
69 | Cc1ccc(C)c(OCCC(=O)OCC(=O)NC(=O)NC2CCCCC2)c1 | inconclusive: -31% [inhibitor]
70 | O=C(N/N=C/C=C/c1ccccc1)c1cc2c(ccc3ccccc32)o1 | inconclusive: -43.6% [inhibitor]
71 | Cc1csc(NC(=O)C2CCN(S(=O)(=O)c3ccc4c(c3)oc(=O)n4C)CC2)n1 | inconclusive: -37.7% [inhibitor]
72 | O=C(Cc1ccccc1)Nc1nnc(-c2cccs2)s1 | inconclusive: -61.1% [inhibitor]
73 | CC(Nc1nc(N2CCN(CCO)CC2)nc2ccccc12)c1ccccc1 (configuration not stated) | active: -93.8%
74 | Cc1ccc2cc(CCNC(=O)C(C)C)c(=O)[nH]c2c1 | inconclusive: -33.5% [inhibitor]
75 | CCn1nc(C)c(Br)c1-c1nc(CS(=O)(=O)c2ccsc2)no1 | inconclusive: -35.9% [inhibitor]
76 | COc1ccccc1CNc1ncc(-c2ccccc2)n1C | inactive: -12.2%
77 | O=C(NCc1ccccn1)c1cccc(NS(=O)(=O)c2ccc(Br)cc2)c1 | inconclusive: -37.6% [inhibitor]

— PubChem BioAssay AID540267 (National Center for Advancing Translational Sciences (NCATS), 2011)
